# PubChem BioAssay AID463173 (ICCB-Longwood Screening Facility, Harvard Medical School, 2010)
# Out of some 52,000 compounds screened, about 1,700 (3.3%) were called active. No stated cut-off is given here; in the data, active means survival mostly below about 52% (no sharp cut-off); inactive means mostly above about 56%. The list shows a part of the results.
# Tested on: Wild type
# Assay: S. aureus survival, RN4220 and DeltatarO strains – OD600, teichoic acid synthesis inhibitors, primary screen (AID 463173)
# Settings: S. aureus RN4220 wild type/DeltatarO growth, OD600, 18 h, hits give low values, screened at 18.75 µg/mL (by protocol)
row,SMILES,survival
1,COc1ccc2c(CNCc3ccccc3OC)c(C(=O)O)n(Cc3ccc(F)cc3Cl)c2c1,inactive: 100%
2,CCc1ccc(NC(=O)C2CCC(CNS(=O)(=O)c3ccc4c(c3)C(C)(C)C(=O)N4C)CC2)cc1 (stereo unspecified),inactive: 90%
3,CCN1/C(=C\C=C2C(=O)OC(C)(C)OC2=O)Sc2ccccc21,inactive: 94%
4,COc1cccc(NC(=O)c2sc3nc(C)c(C(=O)Nc4ccc(Cl)cc4)c(-c4ccc(Br)cc4)c3c2N)c1,inactive: 145%
5,O=C(CSc1n[nH]c(-c2ccccc2)n1)N1CCN(c2ccccc2F)CC1,inactive: 129%
6,COc1ccc(N(CC(=O)Nc2cccc(C(C)=O)c2)S(=O)(=O)c2ccccc2)c(OC)c1,inactive: 72%
7,Cc1cc(OCCCn2c(CCNC(=O)C3CCCCC3)nc3ccccc32)ccc1Cl,active: 0%
8,COc1ccc2c(Sc3ccc(C)cc3)c(C(=O)NCCc3ccccc3)[nH]c2c1,inactive: 88%
9,COc1ccc(-c2c3c(=O)n(C)c(=O)n(C)c3c3n2-c2ccccc2NC3c2ccc(O)cc2O)cc1 (stereo unspecified),active: -8%
10,O=C(CSc1nc(-c2cccs2)nc2cc(=O)[nH]n12)Nc1cccc(C(F)(F)F)c1,inactive: 128%
11,OCc1cnc(SCc2ccc(F)cc2)n1Cc1ccc(F)cc1,inactive: 85%
12,CCOc1ccc(C(=O)N(Cc2cc(OC)c(OC)c(OC)c2)c2ccccn2)cc1,inactive: 83%
13,O=C(Nc1nc2n(n1)C(c1ccc(Cl)cc1)C=C(c1ccccc1)N2)c1ccco1 (stereo unspecified),inactive: 55%
14,Cc1nn(C)c2c1c(C(F)(F)F)cc(=O)n2C(C)C(=O)NCCc1ccccc1 (stereo unspecified),inactive: 84%
15,CCOC(=O)C1=C(C)NC(=O)NC1c1cn(-c2ccccc2)nc1-c1ccc(OC(C)C)cc1 (stereo unspecified),inactive: 60%
16,O=C(Cn1c(CC(=O)N2CCCC2)nc2ccccc21)NCc1ccccc1,inactive: 99%
17,COCC(=O)N(CC1CCCO1)c1nnc(C)s1 (stereo unspecified),inactive: 106%
18,COc1ccc(CCNC(c2ccc(F)cc2)c2nnc(-c3ccccc3Cl)o2)cc1OC (stereo unspecified),inactive: 49%
19,O=C(Cn1cnc2onc(-c3ccc(F)cc3)c2c1=O)Nc1ccc(F)c(Cl)c1,inactive: 72%
20,O=C(CN1c2ccccc2S(=O)(=O)c2ccccc21)Nc1ccccc1Cl,inactive: 65%
21,O=C(c1ccc(F)cc1)N1CCC(c2nc(-c3ccc(S(=O)(=O)N4CCCC4)cc3)no2)CC1,inactive: 89%
22,NC(=O)CSc1nnc(Cn2cnc3ccccc32)o1,inactive: 114%

row,SMILES,survival
1,COc1ccccc1N(CC(=O)Nc1ccc2c(c1)OCO2)S(=O)(=O)c1ccc(C)cc1,inactive: 105%
2,CCCOc1ccc(-c2nonc2NC(=O)c2oc3ccc(Cl)cc3c2C)cc1OCCC,inactive: 89%
3,N#C/C(=C\c1cccnc1)C(=O)Nc1ccccc1,inactive: 109%
4,O=C(O)CCC(=O)Nc1nc(-c2ccccc2)cs1,inactive: 106%
5,CCOc1ccc(S(=O)(=O)c2cn(Cc3ccccc3C)c3ccc(OC)cc3c2=O)cc1,inactive: 94%
6,CCc1nn(CC(=O)NCCCN2CCN(CC)CC2)c(=O)c2cc3occc3n12,inactive: 135%
7,Cc1ccc2nc(COc3ccccc3NC(=O)c3ccccc3F)cc(=O)n2c1,inactive: 80%
8,Cc1ccc2c(c1)c(CC(=O)Nc1ccc(C)c(F)c1)c(C(=O)O)n2C,inactive: 66%
9,CCOc1cccc(C2c3[nH]c4ccccc4c3CCN2C(=O)CSCc2ccc(F)cc2)c1 (stereo unspecified),inactive: 127%
10,CCc1cccc(NC(=O)C2Cc3ccccc3N2C(=O)c2ccccc2)c1 (stereo unspecified),inactive: 136%
11,O=C(c1ccc2c(c1)N(Cc1c(F)cccc1Cl)C(=O)c1ccccc1S2)N1CCOCC1,inactive: 94%
12,CCOC(=O)N1CCN(Cc2nc3cc(NC(=O)C(C)C)ccc3n2C(C)C)CC1,inactive: 96%
13,CCCNC(=O)c1ccc(-c2nc(CS(=O)(=O)c3ccc(C)cc3)c(C)o2)cc1,inactive: 65%
14,NC(=O)Cn1c(=O)n(CCCCCC(=O)NCc2ccc(F)cc2)c(=O)c2sccc21,inactive: 82%
15,COc1ccc(OC)c(NC(=O)CSc2ncc3c(n2)-c2ccccc2N(C)S3(=O)=O)c1,inactive: 75%
16,O=C(C1COc2ccccc2O1)N(Cc1cccnc1)c1nc2c(Cl)cccc2s1 (stereo unspecified),inactive: 71%
17,CCOC(=O)/C(C#N)=C/c1ccc(-c2ccc(Br)cc2)o1,inactive: 103%
18,Cc1ccccc1-c1noc(-c2cccnc2N2CCN(c3ccccc3)CC2)n1,inactive: 120%
19,COc1cccc(C(=O)Nc2cccc(-c3cn4ccsc4n3)c2)c1OC,inactive: 90%
20,CCCCS(=O)(=O)CC(O)CSc1nc(-c2ccc(C)cc2)cc(-c2ccccc2)c1C#N (stereo unspecified),inactive: 79%
21,CCc1cccc(NS(=O)(=O)c2ccc(-n3cccn3)cc2)c1,inactive: 73%
22,CCN(CC)C(=O)Cn1c(=O)n(-c2ccc(C)c(C)c2)c(=O)c2c3c(sc21)CCCCC3,inactive: 93%

row,SMILES,survival
1,CCOC(=O)c1ccc(NC(=O)CCn2c(=O)c3cccn3c3cccnc32)cc1,inactive: 87%
2,O=C(Nc1ccc(F)cc1F)c1cc(-c2ccc(Cl)cc2)on1,inactive: 90%
3,O=C(NCCCN1CCN(c2ccc(F)cc2)CC1)c1cnn(-c2ccc(F)cc2)c1-n1cccc1,inactive: 82%
4,CCc1ccc(NC(=O)CSc2ccc(-c3ccccn3)nn2)cc1,inactive: 121%
5,COc1ccc(NC(=O)c2ccc3c(SCC(=O)O)c4c(nc3c2)CCCC4)c(OC)c1,inactive: 78%
6,Cc1cccc(-c2nc3c4ccccc4n(Cc4cccc(Cl)c4)c(=O)n3n2)c1,inactive: 113%
7,O=C(CN1C(=O)COc2ccc(S(=O)(=O)N3CCOCC3)cc21)N1CCN(c2cccc(Cl)c2)CC1,inactive: 95%
8,COc1ccc(C(NC(C)=O)c2ccc(OC)cc2)cc1,inactive: 108%
9,CC1CCN(CCC(=O)Nc2ccc(Br)cc2)CC1,inactive: 118%
10,C#CCSc1nc(-c2ccccc2)cc(-c2ccccc2)c1C#N,inactive: 70%
11,Cc1ccc(-n2c3c(cc(-c4nc(-c5ccc(Cl)cc5)cs4)c2=O)C(=O)CC(C)(C)C3)cc1C,inactive: 79%
12,COc1ccc(NC(=O)C2CCCN(c3ncnc4c3nc3n4CCCCC3)C2)c(OC)c1 (stereo unspecified),inactive: 90%
13,COc1cc(NS(=O)(=O)c2cc3c(cc2C)N(C)CCO3)cc(OC)c1OC,inactive: 81%
14,Cc1cc(Br)ccc1NC(=O)Cn1cc(S(=O)(=O)N2CCN(c3ccccc3F)CC2)c2ccccc2c1=O,inactive: 79%
15,O=S(=O)(c1ccc(-c2cc(C(F)(F)F)on2)s1)N1CCN(c2ccc(F)cc2)CC1,inactive: 123%
16,Cc1ccccc1C(=O)Nc1ccc(-c2nc3ccccc3o2)cc1,inactive: 115%
17,Cc1ccc(C)c(N2CCN(C(=O)CCc3nnc4n(CC(C)C)c(=O)c5ccccc5n34)CC2)c1,inactive: 81%
18,CC1=C(c2ccc(C(C)C)cc2)S(=O)(=O)NC1=NCCCN1CCN(c2ccccc2F)CC1,inactive: 78%
19,Cc1ccc(CN2CCc3nc(Nc4ccc5c(c4)OCCO5)ncc3C2)cc1,inactive: 82%
20,CCOc1ccc(CNC(=O)c2cnc3sc(N4CCOCC4)nn3c2=O)cc1,inactive: 71%
21,CCS(=O)(=O)N1CCc2cc(C(=O)Nc3ccc(C(=O)OC)cc3)ccc21,inactive: 92%
22,CCn1cc(C(=O)N2CCN(c3cccc(Cl)c3)CC2)c2cc(OC)c(OC)cc2c1=O,inactive: 71%

row,SMILES,survival
1,Cc1ccc(NC(=O)Cn2c(=O)c3ccccc3n3nncc23)cc1,inactive: 130%
2,Cc1cc(=O)oc2c3c(ccc12)OCC3=O,inactive: 111%
3,CC(=O)c1ccc(Nc2nc3c(S(=O)(=O)c4ccccc4)nnn3c3ccc(Cl)cc23)cc1,inactive: 84%
4,CCSc1oc(-c2ccco2)nc1S(=O)(=O)c1ccc(Br)cc1,inactive: 65%
5,CCN1c2ccccc2-c2nc(SCC(=O)NCc3ccccc3)ncc2S1(=O)=O,inactive: 74%
6,COC(=O)CCNC(=O)NC(CCC(C)C)c1c(-n2cccc2)sc2c1CCN(C)C2 (stereo unspecified),inactive: 83%
7,CCCN(CCC)C(=O)Cn1c(=O)n(-c2ccc(Cl)cc2)c(=O)c2c3c(sc21)CCCCC3,inactive: 86%
8,Cc1ccc(-c2nn(-c3ccc(F)cc3)c3c2cnc2cc(F)c(F)cc23)cc1,inactive: 76%
9,CCCc1cc(=O)[nH]c(SCC(=O)N2CCN(c3ccccc3OC)CC2)n1,inactive: 102%
10,COc1cc(NC(=O)c2cc3c(s2)-c2ccccc2OC3)cc(OC)c1OC,inactive: 53%
11,COc1ccccc1NC(=O)Cn1c(=O)n(CCC(=O)NCC2CCCO2)c(=O)c2cc(OC)c(OC)cc21 (stereo unspecified),inactive: 127%
12,COc1ccccc1-c1cc2nc(C)c(CCC(=O)O)c(C)n2n1,inactive: 72%
13,CCC(=O)N1CCc2cc(S(=O)(=O)NCCC(=O)Nc3cc(C)ccc3OC)ccc21,inactive: 117%
14,Cc1ccc2nc(-c3ccc(O)cc3)c(Nc3ccc(Cl)cc3)n2c1,inactive: 69%
15,CC(=O)c1cccc(Nc2nc(-c3cccc(C)c3)nc3ccccc23)c1,inactive: 31%
16,Cc1nn(-c2ccc(N3CCCCC3)nn2)c(C)c1CCC(=O)NCc1ccc(OC(C)C)cc1,inactive: 84%
17,Cc1ccccc1C(=O)Nc1ccc(OCc2cc(=O)n3ccccc3n2)cc1,inactive: 53%
18,Cc1ccc(NC(=O)Cn2cc(S(=O)(=O)N3CCCC3)c(S(=O)(=O)N3CCCC3)c2)cc1F,inactive: 126%
19,Cc1ccc(CCNC(=O)c2c[nH]c3ccc(S(=O)(=O)Nc4ccc(C)cc4C)cc3c2=O)cc1,inactive: 126%
20,COc1cccc(CN(Cc2ccco2)C(c2ccc(OC)c(OC)c2)c2nnnn2Cc2ccccc2)c1 (stereo unspecified),inactive: 115%
